Measured values reported in PubChem BioAssay AID686978 (National Center for Advancing Translational Sciences (NCATS), 2013).
Screen size: about 420,000 compounds; about 64,000 (15%) were called active. The shares of active, inactive and inconclusive entries below differ from those in the screen. Calls follow the shape of the dose curve; as a rule, active = well fitted inhibition curve with a large enough effect; inconclusive = small, poorly fitted or top-dose-only effect; inactive = flat fitted curve, though single readings scatter. Potencies of inconclusive entries are left out as doubtful fits.

test: qHTS for Inhibitors of human tyrosyl-DNA phosphodiesterase 1 (TDP1): qHTS in cells in absence of CPT; conditions: DT40 Tdp1-/- hTDP1 cells, no CPT, ATP luminescence, 48 h; activity change, negative = growth inhibition: at 46.2 µM (top of the series) unless noted; also: nearly all actives have a fitted effect of over 55% in size
Method in brief: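 Chicken DT40 Tdp1-/- cells stably complemented with human TDP1 were seeded at 400 cells/well with DMSO in place of 20 nM camptothecin. After compound pinning, cells grew at least 48 hr at 37 °C; viability read by CellTiter-Glo luminescence.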
% is scaled to controls: 0 for no effect and ±100 for the full control effect; potency is read from the fitted curve at half-maximal effect; tags tell the direction and shape of the fitted curve.

Row | SMILES | Potency | activity change, negative = growth inhibition
1 | COc1cccc(NC(=O)CSc2ncnc3c2oc2ccccc23)c1 | inconclusive [inhibitor, single point] | 
2 | COc1ccc(OC)c(NC(=O)CSc2nnc(-c3ccco3)n2-c2ccccc2)c1 | inconclusive [inhibitor, partial curve] | 
3 | COc1ccc(O)c(CN2CCC(n3nccc3NC(=O)c3ccccc3Cl)CC2)c1 | inconclusive [inhibitor, single point] | 
4 | CN1CCN(c2nc(-c3ccco3)cc(C(F)(F)F)n2)CC1 |  | inactive: -2.77%
5 | CC1CCN(C(=O)CSc2nnc(CNc3ccc(F)cc3)n2Cc2ccco2)CC1 | inconclusive [inhibitor, single point] | 
6 | COC(=O)c1ccccc1NC(=O)c1cncc(Br)c1 | inconclusive [inhibitor, partial curve] | 
7 | Cc1cnc2cc([N+](=O)[O-])ccc2n1 |  | inactive: -20.9%
8 | Cc1ccc(S(=O)(=O)NNC(=O)c2ccncc2)cc1[N+](=O)[O-] |  | inactive: -11.4%
9 | CC1CCc2nc(/C(C#N)=C/c3ccncc3)sc2C1 (stereo unspecified) | inconclusive [inhibitor, single point] | 
10 | Cc1cc(C)c2cc(CNC3CCCC3)c(Cl)nc2c1 | inconclusive [inhibitor, single point] | 
11 | O=C(c1cccc(S(=O)(=O)N2CCN(c3ccccc3)CC2)c1)N1CCCCCCC1 | active: 13 µM | 
12 | CCN(CC)/C(=N/S(=O)(=O)c1ccc(C)cc1)c1ccccc1 |  | inactive: -13.2%
13 | CCN(Cc1cnn(C)c1)C(=O)c1cc(COc2ccc(F)cc2F)on1 | inconclusive [inhibitor, partial curve] | 
14 | CCNc1nc(NCC)n2c(SC(C(=O)Nc3cc(Cl)cc(Cl)c3)c3ccccc3)nnc2n1 (stereo unspecified) | active: 16.4 µM | 
15 | CC(=O)N1CCN(c2ccc(NC(=O)COc3ccc(Cl)cc3Cl)cc2)CC1 | active: 18.4 µM | 
16 | CCN(Cc1cc2cc(C)ccc2[nH]c1=O)C(=O)c1cccc(OC)c1 | inconclusive [inhibitor, partial curve] | 
17 | NNc1nc2cccnc2n(CCNc2ncc(C(F)(F)F)cc2Cl)c1=O | inconclusive [inhibitor, single point] | 
18 | CN1CCN(S(=O)(=O)c2ccc(NC(=O)C3CCCO3)cc2)CC1 (stereo unspecified) |  | inactive: -6.78%
19 | Cc1noc(C)c1COc1ccc(CC(=O)NCCc2ccccn2)cc1 | inconclusive [inhibitor, full curve, poor fit] | 
20 | O=C(CN1C(=O)NC2(CCCCCC2)C1=O)c1ccc(OC(F)F)cc1OC(F)F | inconclusive [inhibitor, single point] | 
21 | COc1ccc(N2C(=O)C(CC(=O)Nc3ccccc3)N(Cc3cccs3)C2=O)cc1 (stereo unspecified) | inconclusive [inhibitor, single point] | 
22 | CCC(C)NC(=S)Nc1ccc2nc(N3CCN(CC)CC3)cc(C)c2c1 (stereo unspecified) | active: 23.1 µM | 
23 | COc1ccc(S(=O)(=O)N2CCOC2CNC(=O)C(=O)NCCc2ccccc2)cc1OC (stereo unspecified) | inconclusive [inhibitor, single point] | 
24 | O=C1CCN(Cc2ccc(O)cc2)CCN1[C@H](CO)c1ccccc1 | inactive | 
25 | c1csc(CNc2ccnc(-c3ccc4c(c3)OCO4)n2)c1 | inconclusive [inhibitor, single point] | 
26 | COCCN(CCOC)C(=O)c1ccc(CSc2nc3ccccc3s2)cc1 | inconclusive [inhibitor, single point] | 

Row | SMILES | Potency | activity change, negative = growth inhibition
27 | COc1ccc(Cc2c(-c3cccc(Cl)c3)nc3cc(C)c(Br)c(C)n23)c(C)c1 | inconclusive [inhibitor, single point] | 
28 | CCSc1nnc(-c2ccncc2)o1 |  | inactive: -1.97%
29 | CSc1nsc(SC)c1NC(=O)N1CCCC1 |  | inactive: -21.1%
30 | O=C(O)C1CCCCC1C(=O)Nc1ccccc1Nc1ccccc1 (stereo unspecified) | inconclusive [inhibitor, single point] | 
31 | CC(C)(C)c1ccc(-c2nc(C#N)c(NCc3cccnc3)o2)cc1 | inconclusive [inhibitor, single point] | 
32 | Cc1ccccc1Nc1nc(N)nc(CSCC(=O)Nc2cccc(Br)c2)n1 | active: 16.4 µM | 
33 | COc1ccc(Cl)cc1NC(=O)C1Cc2cc(S(=O)(=O)N3CCCC3)ccc2N1C(C)=O (stereo unspecified) | inconclusive [inhibitor, single point] | 
34 | N#Cc1c(NC(=O)c2cnccn2)sc2c1CCCC2 | active: 11.6 µM | 
35 | COc1ccc([N+](=O)[O-])cc1-c1nc2ccccc2nc1-c1ccccc1 |  | inactive: -35.9%
36 | CCOC(=O)c1c(NC(=O)c2ccccc2Cl)sc2c1CCCC2 | inconclusive [inhibitor, single point] | 
37 | CCOCCOC(=O)C1=C(C)Nc2ccc(C)cc2S1 |  | inactive: -24%
38 | CCOC(=O)c1cccc(NC(=O)c2ccc3c(Cl)c4c(nc3c2)CCC4)c1 | active: 29.1 µM | 
39 | CCn1c(SCC(=O)Nc2nc3ccc(C)cc3s2)nc2c(c1=O)SC(C)C2 (stereo unspecified) | active: 10.3 µM | 
40 | CC(=O)c1ccccc1C(=O)N1CCCC(CCC(=O)N2CCN(c3ccccn3)CC2)C1 (stereo unspecified) |  | inactive: -27.6%
41 | CNS(=O)(=O)c1cc(OC)c(OC)cc1CC(=O)OC |  | inactive: 1.58%
42 | COCC1CCCN(C(=O)c2ccc3oc(CCCc4ccccc4)nc3c2)C1 (stereo unspecified) | inconclusive [inhibitor, single point] | 
43 | CCCc1nc([N+](=O)[O-])c(S(=O)(=O)c2ccccc2)n1CC(C)C | active: 3.26 µM | 
44 | O=C(O)COc1ccccc1-c1nc(-c2ccccc2)c(-c2ccccc2)[nH]1 |  | inactive: -11.7%
45 | CCOc1cc(-c2nc3c(c(CC)nn3-c3ccccc3)c3cc(OC)c(OC)cc23)ccc1O |  | inconclusive: 3.52% [inhibitor]
46 | COc1ccc2c(c1)c(CC(=O)O)c(C)n2C(=O)c1ccc(Cl)cc1 | inconclusive [inhibitor, single point] | 
47 | COc1cccc(-c2nc(CS(=O)(=O)CC(=O)NCc3ccc(C)cc3)c(C)o2)c1 | inconclusive [inhibitor, single point] | 
48 | COCCNC(=S)N1CCC(NC(=O)c2ccco2)CC1 |  | inactive: -5.28%
49 | Cc1ccc(NC(=O)C(OC(=O)c2cnc(C)cn2)c2ccccc2)c([N+](=O)[O-])c1 (stereo unspecified) | inconclusive [inhibitor, single point] | 
50 | COc1ccc(C(=O)/C(C#N)=N/Nc2ccccc2[N+](=O)[O-])cc1 | active: 1.84 µM | 
51 | O=C(NC1CCCCCC1)C1CCCN(c2ncccn2)C1 (stereo unspecified) |  | inactive: -0.121%
52 | C=CCOc1ccc(Br)cc1CNCCCN1CCOCC1 | inconclusive [inhibitor, single point] | 

Row | SMILES | Potency | activity change, negative = growth inhibition
53 | CCOC(=O)c1c(-c2ccccc2)csc1NC(=O)/C(C#N)=C/c1ccc(O)c(OC)c1 | inconclusive [inhibitor, single point] | 
54 | C=CCn1c(CCC(=O)O)ccc1-c1ccccc1 | inconclusive [inhibitor, partial curve, poor fit] | 
55 | Cc1ccc(-c2nnc(SCc3ccccc3C#N)o2)cc1 | inconclusive [inhibitor, partial curve] | 
56 | CCN(CC)S(=O)(=O)c1ccc(C(=O)Nc2ccc3c(c2)OCCO3)cc1 |  | inactive: -24.2%
57 | COC(=O)C1SCC2C(=O)N(Cc3ccc(Cl)c(Cl)c3)CC(=O)N21 (stereo unspecified) | inconclusive [inhibitor, single point] | 
58 | C=CCn1c(=O)c2c(C)c(C)sc2n2c(Nc3ccccc3)nnc12 | active: 23.1 µM | 
59 | CC/C(Cc1ccccc1)=N/NC(=O)CNC(=O)c1ccc(Cl)cc1Cl |  | inactive: -8.84%
60 | CC1(C(=O)Nc2ccc(Cl)c(Cl)c2)CCN1Cc1cc2ccccc2o1 (stereo unspecified) |  | inactive: -23.5%
61 | COc1ccc(C)cc1N(C(=O)c1ccccc1F)c1nc2ccccc2s1 | active: 18.4 µM | 
62 | Cc1ccc2c(c1)NC(c1cccnc1)=NC(c1ccc(F)cc1)=N2 | active: 5.8 µM | 
63 | Nc1nonc1-n1nnc(C(=O)N/N=C/c2ccc(OCc3ccccc3F)cc2)c1CNc1ccccc1 |  | inactive: -0.229%
64 | Cc1n[nH]c(C)c1C(=O)CC1(O)C(=O)N(Cc2ccccc2)c2ccc(Br)cc21 (stereo unspecified) | inconclusive [inhibitor, single point] | 
65 | COc1ccc(OCC(O)CNCCOc2ccccc2OC)c(C(C)(C)C)c1 (stereo unspecified) | active: 9.2 µM | 
66 | CCOC(=O)C(CC)Sc1nnc2c3cc(C)ccc3n(C)c2n1 (stereo unspecified) | inconclusive [inhibitor, single point] | 
67 | Cc1cccc(CCNC(=O)c2cc(S(=O)(=O)N3CCCC3)cn2C)c1 | inconclusive [inhibitor, single point] | 
68 | Cc1cc2ccccc2n2c(SCC(=O)Nc3ccc(S(=O)(=O)N4CCC(C)CC4)cc3)nnc12 | active: 23.1 µM | 
69 | Oc1cc(O)c2c(c1)O[C@H](c1ccc(O)c(O)c1)[C@H](O)C2 |  | inconclusive: -36.8% [inhibitor]
70 | O=C(N/N=C/c1ccc[nH]1)c1cccc([N+](=O)[O-])c1 |  | inactive: 3.15%
71 | COc1cc(C2NC(=O)NC(C)=C2C(=O)OCC2CCCO2)ccc1O (stereo unspecified) |  | inactive: -9.84%
72 | Cc1nn(C)cc1CNc1nc(C)c(-c2ccn(CC3COc4ccccc4O3)n2)s1 (stereo unspecified) | active: 20.6 µM | 
73 | COc1ccc2oc(C(=O)Nc3ccccc3N3CCOCC3)c(C)c2c1 | inconclusive [inhibitor, single point] | 
74 | Cc1ccc(-c2c3c(=O)n(C)c(=O)n(C)c3cn2-c2ccccc2O)cc1 |  | inactive: -4.34%
75 | CCN1CCN(c2oc(COc3ccc(Cl)cc3)nc2C#N)CC1 | inconclusive [inhibitor, single point] | 
76 | CCN(CC(=O)NCc1ccc(Cl)cc1)C(=O)COc1ccc(C)cc1C | inconclusive [inhibitor, partial curve, poor fit] | 
